B1: BGCB491 (other)
heavy: QVQLQQSGPRLVRPSQTLSLTCAISGDSVFNNNAAWSWIRQSPSRGLEWLGRTYYRSKWLYDYAVSVKSRITVNPDTSRNQFTLQLNSVTPEDTALYYCARGYSSSFDYWGQGTLVTVSSASTKGPSVFPLAPSSKSTSGGTAALGCLVKDYFPEPVTVSWNSGALTSGVHTFPAVLQSSGLYSLSSVVTVPSSSLGTQTYICNVNHKPSNTKVDKKVEPKSCDKTHTCPPCPAPEAAGGPSVFLFPPKPKDTLMISRTPEVTCVVVSVSHEDPEVKFNWYVDGVEVHNAKTKPREEQYNSTYRVVSVLTVLHQDWLNGKEYKCKVSNKALPAPIEKTISKAKGQPREPQVYTLPPSREEMTKNQVSLSCAVKGFYPSDIAVEWESNGQPENNYKTTPPVLDSDGSFFLVSKLTVDKSRWQQGNVFSCSVMHEALHNRFTQKSLSLSPGKGGGGSGGGGSGGGGSGGGGS[letters of about 100 residues not shown]QFPHTFGQGTKLEIKGGSEGKSSGSGSESKSTGGSQVTLKESGPVLVKPTETLTLTCTVSGFSLTNIRMSVSWIRQPPGKALEWLAHIFSNDEKSYSTSLKSRLTISRDTSKSQVVLTLTNVDPVDTATYYCARMRLPYGMDVWGQGTTVTVSS
light: QSALTQPASVSGSPGQSITISCTGTSSNIGTYKFVSWYQQHPDKAPKVLLYEVSKRPSGVSSRFSGSKSGNTASLTISGLQAEDQADYHCVSYAGSGTLLFGGGTKLTVLGQPKAAPSVTLFPPSSEELQANKATLVCLISDFYPGAVTVAWKADSSPVKAGVETTTPSKQSNNKYAASSYLSLTPEQWKSHRSYSCQVTHEGSTVEKTVAPTECS
chain: EIVLTQSPGTLSLSPGERATLSCRASQSISSSFLTWYQQKPGQAPRLLIYGASSRATGIPDRFSGGGSGTDFTLTISRLEPEDFAVYYCQHYGSSPMYTFGQGTKLEIKGGSEGKSSGSGSESKSTGGS[letters of about 100 residues not shown]DEGYSSGHYYGMDVWGQGTTVTVSSEPKSSDKTHTCPPCPAPEAAGGPSVFLFPPKPKDTLMISRTPEVTCVVVSVSHEDPEVKFNWYVDGVEVHNAKTKPREEQYNSTYRVVSVLTVLHQDWLNGKEYKCKVSNKALPAPIEKTISKAKGQPREPQVYTLPPSREEMTKNQVSLWCLVKGFYPSDIAVEWESNGQPENNYKTTPPVLDSDGSFFLYSKLTVDKSRWQQGNVFSCSVMHEALHNHYTQKSLSLSPGK
notes: Trispecific IgG1 antibody (L234A, L235A, D265S); Heavy chain 1 = anti-CD3 (CD3B376) Fab heavy chain, hole and RF mutations, with C-terminal anti-GPRC5D scFv (GC5B680); Heavy chain 2 = anti-BCMA scFv (BCMB519) - Fc knob; also called JNJ-79635322; BCMA×GPRC5D×CD3 trispecific mAb
B2: BGCB463 (other)
heavy: QVQLQQSGPRLVRPSQTLSLTCAISGDSVFNNNAAWSWIRQSPSRGLEWLGRTYYRSKWLYDYAVSVKSRITVNPDTSRNQFTLQLNSVTPEDTALYYCARGYSSSFDYWGQGTLVTVSSASTKGPSVFPLAPSSKSTSGGTAALGCLVKDYFPEPVTVSWNSGALTSGVHTFPAVLQSSGLYSLSSVVTVPSSSLGTQTYICNVNHKPSNTKVDKKVEPKSCDKTHTCPPCPAPEAAGGPSVFLFPPKPKDTLMISRTPEVTCVVVSVSHEDPEVKFNWYVDGVEVHNAKTKPREEQYNSTYRVVSVLTVLHQDWLNGKEYKCKVSNKALPAPIEKTISKAKGQPREPQVYTLPPSREEMTKNQVSLSCAVKGFYPSDIAVEWESNGQPENNYKTTPPVLDSDGSFFLVSKLTVDKSRWQQGNVFSCSVMHEALHNRFTQKSLSLSPGK
light: QSALTQPASVSGSPGQSITISCTGTSSNIGTYKFVSWYQQHPDKAPKVLLYEVSKRPSGVSSRFSGSKSGNTASLTISGLQAEDQADYHCVSYAGSGTLLFGGGTKLTVLGQPKAAPSVTLFPPSSEELQANKATLVCLISDFYPGAVTVAWKADSSPVKAGVETTTPSKQSNNKYAASSYLSLTPEQWKSHRSYSCQVTHEGSTVEKTVAPTECS
chain: [letters of about 100 residues not shown]QFPHTFGQGTKLEIKGGSEGKSSGSGSESKSTGGSQVTLKESGPVLVKPTETLTLTCTVSGFSLTNIRMSVSWIRQPPGKALEWLAHIFSNDEKSYSTSLKSRLTISRDTSKSQVVLTLTNVDPVDTATYYCARMRLPYGMDVWGQGTTVTVSSEPKSSDKTHTCPPCPAPEAAGGPSVFLFPPKPKDTLMISRTPEVTCVVVSVSHEDPEVKFNWYVDGVEVHNAKTKPREEQYNSTYRVVSVLTVLHQDWLNGKEYKCKVSNKALPAPIEKTISKAKGQPREPQVYTLPPSREEMTKNQVSLWCLVKGFYPSDIAVEWESNGQPENNYKTTPPVLDSDGSFFLYSKLTVDKSRWQQGNVFSCSVMHEALHNHYTQKSLSLSPGKGGSEGKSSGSGSESKSTGGSEIVLTQSPGTLSLSPGERATLSCRASQSISSSFLTWYQQKPGQAPRLLIYGASSRATGIPDRFSGGGSGTDFTLTISRLEPEDFAVYYCQHYGSSPMYTFGQGTKLEIKGGSEGKSSGSGSESKSTGGS[letters of about 100 residues not shown]DEGYSSGHYYGMDVWGQGTTVTVSS
notes: Trispecific IgG1 antibody (L234A, L235A, D265S); Heavy chain 1 = anti-CD3 (CD3B376) Fab heavy chain with hole and RF mutations; also called BGCB463.003; BGCB463.004

Key:
[1] = target: T1, CD3W200, recombinant CD3εγ heterodimer construct (human, UniProt P07766 22-118; P09693 23-103); test: SPR
T1 construct: also called human CD3 (SPR antigen for BGCB491)

[2] = target: T2, human BCMA (B cell maturation antigen, TNFRSF17) on cells (human, UniProt Q02223 1-184); test: cell-based or functional assay
T2 sequence (looked up): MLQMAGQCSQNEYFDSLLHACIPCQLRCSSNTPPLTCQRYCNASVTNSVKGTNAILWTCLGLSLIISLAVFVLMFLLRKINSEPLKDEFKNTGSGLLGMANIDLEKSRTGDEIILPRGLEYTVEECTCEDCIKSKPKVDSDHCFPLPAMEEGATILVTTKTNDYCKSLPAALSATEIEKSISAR

[3] = target: T3, human GPRC5D (G-protein coupled receptor family C group 5 member D) on cells (human, UniProt Q9NZD1 1-345); test: cell-based or functional assay
[4] = target: T1, CD3W200, recombinant CD3εγ heterodimer …; test: SPR, CD3 binding after pH 8.5 stress
[5] = target: T1, CD3W200, recombinant CD3εγ heterodimer …; test: SPR, CD3 binding after physiological stress
[6] = target: T2, human BCMA (B cell maturation antigen, …); test: flow cytometry, H929-GPRC5D-KO cells (BCMA arm), 1 h 37C; Run 3
Method: Flow cytometry was used to evaluate the BCMA and GPRC5D arm binding of BGCB491 in vitro. BGCB491 and isotype control were tested on a panel of H929-WT, H929-BCMA-KO, H929-GPRC5D-KO, and H929-BCMA/GPRC5D-KO cell lines after 1-hour 37° C. incubation.

[7] = target: T4, human CD3 (CD3ε of the TCR/CD3 complex) on primary human pan T cells (human, UniProt P07766); test: flow cytometry, pan T cells; median of donors, estimated by bioinformatic extrapolation
T4 construct: whole, on cells; On T cells CD3ε stands in the whole TCR/CD3 complex
Method: Flow cytometry was used to evaluate the CD3 arm (i.e., CD3B376) binding of BGCB491 to CD3⁺ pan T cells from 7 different healthy human. Cell-based EC₅₀ for CD3B376 could not be determined due to lack of saturation kinetics at 1 hour (FIG. 26). Bioinformatic extrapolation was performed (FIG. 27) using the CD3B376×Null control antibody (i.e., GCDB381) molecule, which saturates within 2 μM top concentration dose-response to constrain the top of the non-linear regression curve to generate a full curve that enables estimation of ECₓ values (Table 21).

[8] = target: T4, human CD3 (CD3ε of the TCR/CD3 complex) …; test: flow cytometry, human pan T cells, 1 h 4C
Method: (§1) For binding of BGCB463 to human and cynomolgus Pan T cells, three human donors (Hemacare) were selected, quickly thawed, resuspended, and aliquoted into a 96-well plate at 1×10⁶ cells/mL. Cells were then washed, Fc blocked if necessary (Innovex), and stained with viability dye (Invitrogen). BGCB463 and its corresponding isotype (B23B251) were diluted in complete media to an initial concentration of 2 μM and 1:3 serial dilutions in duplicate were performed for a dose-response curve. The cells were incubated with molecules at 4° C. or 37° C. for 1 hour. When necessary, incubation with 90% human serum (Sigma) was also performed as described above.
(§2) First, FACS-based binding for GPRC5D and BCMA binding arms of the trispecific molecule was determined by measuring the effective concentration (EC) range from a dose-response curve using a 4-parameter fit at 37° C. for 1 hr. This was assessed using an H929 suite of cells (WT, GPRC5D-KO, BCMA-KO, and GPRC5D/BCMA KO), and a similar MM.1R suite. Cell based EC₅₀ is approximately 13 nM for WT H929 (FIGS. 2A-2D, Table 7) and 2.4 nM for WT MM.1R (FIGS. 3A-3D, Table 8). […] Next, cell-based EC₅₀ was determined for the CD3-binding Fab arm using purified Pan T cells from three random donors. […] Next, dose responsive binding was assessed at 4° C. to remove any potential biological effects. […]

[9] = target: T4, human CD3 (CD3ε of the TCR/CD3 complex) …; test: flow cytometry, human pan T cells, Donor 2, 1 h 37C; Run 1
Method: as §1, §2

[10] = target: T2, human BCMA (B cell maturation antigen, …); test: flow cytometry on MM.1R GPRC5D KO cells (BCMA arm), 1 hr 37 C, AF647 secondary detection
Method: (§3) First, FACS-based binding for GPRC5D and BCMA binding arms of the trispecific molecule was determined by measuring the effective concentration (EC) range from a dose-response curve using a 4-parameter fit at 37° C. for 1 hr. This was assessed using an H929 suite of cells (WT, GPRC5D-KO, BCMA-KO, and GPRC5D/BCMA KO), and a similar MM.1R suite. Cell based EC₅₀ is approximately 13 nM for WT H929 (FIGS. 2A-2D, Table 7) and 2.4 nM for WT MM.1R (FIGS. 3A-3D, Table 8). A clear avidity affect is observed as EC₅₀ and Bmax are both reduced in GPRC5D-KO and BCMA-KO lines which test monovalent binding of target binding arms (Table 7). Next, cell-based EC₅₀ was determined for the CD3-binding Fab arm using purified Pan T cells from three random donors. […] Next, dose responsive binding was assessed at 4° C. to remove any potential biological effects. As shown in FIGS. 5A-5C, binding is stronger (50-100 nM) at 4° C., compared to 37° C., which may indicate internalization. Additionally, two expression lots of BGCB463 (BGCB463.003 from transient transfection and BGCB463.004 from a stable transfection pool), were directly compared with binding to H929, MM.1R, and Pan T cells and no differences were noted (FIGS. 6A-6C).

[11] = target: T3, human GPRC5D (G-protein coupled …); test: flow cytometry on MM.1R BCMA KO cells (GPRC5D arm), 1 hr 37 C, AF647 secondary detection
Method: as §3

[12] = target: T5, cynomolgus BCMA on K562 cells (cynomolgus monkey, UniProt A0A2K5UD97 1-183); test: flow cytometry on K562 cells expressing cynomolgus BCMA, 1 hr 37 C, AF647-anti-human IgG
T5 construct: whole, on cells; also called cyno BCMA
T5 sequence (A0A2K5UD97 entry or part of it): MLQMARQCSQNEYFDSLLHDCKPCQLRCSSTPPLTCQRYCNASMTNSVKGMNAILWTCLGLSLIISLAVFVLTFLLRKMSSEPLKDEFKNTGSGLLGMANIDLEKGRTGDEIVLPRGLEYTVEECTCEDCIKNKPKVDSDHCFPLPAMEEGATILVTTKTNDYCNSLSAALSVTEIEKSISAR

T3 sequence (Q9NZD1 whole entry): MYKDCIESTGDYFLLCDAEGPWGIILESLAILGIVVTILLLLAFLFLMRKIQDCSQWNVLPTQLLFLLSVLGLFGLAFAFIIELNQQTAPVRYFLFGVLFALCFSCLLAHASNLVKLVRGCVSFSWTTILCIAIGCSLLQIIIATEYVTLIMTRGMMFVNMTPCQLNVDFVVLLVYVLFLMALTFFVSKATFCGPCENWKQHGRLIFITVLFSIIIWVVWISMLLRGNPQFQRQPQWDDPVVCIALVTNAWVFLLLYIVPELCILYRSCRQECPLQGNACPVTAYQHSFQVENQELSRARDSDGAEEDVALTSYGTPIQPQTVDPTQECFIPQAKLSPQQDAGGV

Binder	Kd [1] [nM]	CD3 T-cell activation EC50, H929-GPRC5D-KO [2] [nM]	Cytotoxicity EC50, H929-GPRC5D-KO, 72 hours, 4 T-cell donors [2] [nM]	CD3 T-cell activation EC50, H929-BCMA-KO [3] [nM]	Cytotoxicity EC50, H929-BCMA-KO, 72 hours, 4 T-cell donors [3] [nM]	Kd [4] [nM]	Kd [5] [nM]	EC50 [6] [nM]	EC50 [7] [nM]	EC50 [8] [nM]	EC50 [9] [nM]	EC50 (read off the curve) [10] [nM]	EC50 (read off the curve) [11] [nM]	binding result [12]
B1	25.1	0.487	0.33	4.13	4.79	21.6	19.3	224	3370					
B2										50 to 100	572	~60	~10	no binding (tested: 2 µM)

Source: patent publication US20220267438A1 (Janssen / Centocor, published 2022)
